# Data reported in the GPR68 mutational scans of Howard et al. (2025).
# Scores whose standard error is large were omitted. Two further conditions of the source, in which the scores hardly spread, are not listed. In variant names, del marks residues removed and ins residues inserted between the two positions. For part of these data: The data file names ogerin without a concentration.
# B1: GPR68, Q15743 (parent)
# chain: MGNITADNSSMSCTIDHTIHQTLAPVVYVTVLVVGFPANCLSLYFGYLQIKARNELGVYLCNLTVADLFYICSLPFWLQYVLQHDNWSHGDLSCQVCGILLYENIYISVGFLCCISVDRYLAVAHPFRFHQFRTLKAAVGVSVVIWAKELLTSIYFLMHEEVIEDENQHRVCFEHYPIQAWQRAINYYRFLVGFLFPICLLLASYQGILRAVRRSHGTQKSRKDQIQRLVLSTVVIFLACFLPYHVLLLVRSVWEASCDFAKGVFNAYHFSLLLTSFNCVADPVLYCFVSETTHRDLARLRGACLAFLTCSRTGRAREAYPLGAPEASGKSGAQGEEPELLTKLHPAFQTPNSPGSGGFPTGRLA
# Experiments:
# [1] = variants of: B1; test: cAMP reporter score (Enrich2 score, wild type = 0); higher = more signal; HEK293T, FACS bins
# [2] = variants of: B1; test: surface expression score (Enrich2 score, wild type = 0); higher = more signal; HEK293T, FACS bins
variant,measurement,setting,value
I19W,cAMP reporter score,[1]; pH 5.5,0.112
same,cAMP reporter score,[1]; pH 6,-0.796
same,cAMP reporter score,"[1]; pH 6, modulator: ogerin",-0.892
same,cAMP reporter score,"[1]; pH 6.5, modulator: ogerin",-1.28
same,surface expression score,[2],1.95
I19Y,cAMP reporter score,[1]; pH 5.5,-1.22
same,cAMP reporter score,[1]; pH 6,-0.472
same,cAMP reporter score,"[1]; pH 6, modulator: ogerin",-0.742
same,cAMP reporter score,"[1]; pH 6.5, modulator: ogerin",-1.09
same,surface expression score,[2],-0.588
I19_H20insG,cAMP reporter score,[1]; pH 5.5,-0.89
same,cAMP reporter score,[1]; pH 6,-0.912
same,cAMP reporter score,"[1]; pH 6, modulator: ogerin",-1.38
same,cAMP reporter score,"[1]; pH 6.5, modulator: ogerin",-0.487
same,surface expression score,[2],-1.64
H20_T22del,cAMP reporter score,[1]; pH 5.5,-1.34
same,cAMP reporter score,[1]; pH 6,-0.453
same,cAMP reporter score,"[1]; pH 6, modulator: ogerin",-1.11
same,cAMP reporter score,"[1]; pH 6.5, modulator: ogerin",-0.7
same,surface expression score,[2],-1.97
Q21A,cAMP reporter score,[1]; pH 5.5,0.552
same,cAMP reporter score,[1]; pH 6,-0.054
same,cAMP reporter score,"[1]; pH 6, modulator: ogerin",-0.199
same,cAMP reporter score,"[1]; pH 6.5, modulator: ogerin",-0.831
same,surface expression score,[2],1.2
Q21C,cAMP reporter score,[1]; pH 5.5,-1.04
same,cAMP reporter score,[1]; pH 6,-0.734
same,cAMP reporter score,"[1]; pH 6, modulator: ogerin",-1.38
same,cAMP reporter score,"[1]; pH 6.5, modulator: ogerin",-1.37
same,surface expression score,[2],-0.866
Q21D,cAMP reporter score,[1]; pH 5.5,0.408
same,cAMP reporter score,[1]; pH 6,-1.72
same,cAMP reporter score,"[1]; pH 6, modulator: ogerin",-0.435
same,cAMP reporter score,"[1]; pH 6.5, modulator: ogerin",-0.541
same,surface expression score,[2],-1.28
Q21E,cAMP reporter score,[1]; pH 5.5,0.428
same,cAMP reporter score,[1]; pH 6,-0.197
same,cAMP reporter score,"[1]; pH 6, modulator: ogerin",0.012
same,cAMP reporter score,"[1]; pH 6.5, modulator: ogerin",-0.524
same,surface expression score,[2],-0.019
Q21F,cAMP reporter score,[1]; pH 5.5,-0.413
same,cAMP reporter score,[1]; pH 6,-0.859
same,cAMP reporter score,"[1]; pH 6, modulator: ogerin",-1.06
same,cAMP reporter score,"[1]; pH 6.5, modulator: ogerin",-0.768
same,surface expression score,[2],0.783
Q21G,cAMP reporter score,[1]; pH 5.5,-0.218
same,cAMP reporter score,"[1]; pH 6, modulator: ogerin",-0.682
same,cAMP reporter score,"[1]; pH 6.5, modulator: ogerin",-0.293
same,surface expression score,[2],0.321
Q21H,cAMP reporter score,[1]; pH 5.5,1.06
same,cAMP reporter score,[1]; pH 6,-1.07
same,cAMP reporter score,"[1]; pH 6, modulator: ogerin",1.28
same,cAMP reporter score,"[1]; pH 6.5, modulator: ogerin",-0.345
same,surface expression score,[2],1.93
Q21I,cAMP reporter score,[1]; pH 5.5,-0.518
same,cAMP reporter score,[1]; pH 6,0.357
same,cAMP reporter score,"[1]; pH 6, modulator: ogerin",-0.215
same,cAMP reporter score,"[1]; pH 6.5, modulator: ogerin",-0.491
same,surface expression score,[2],0.292
Q21K,cAMP reporter score,[1]; pH 5.5,-1.36
same,cAMP reporter score,[1]; pH 6,-1.06
same,cAMP reporter score,"[1]; pH 6, modulator: ogerin",-1.5
same,cAMP reporter score,"[1]; pH 6.5, modulator: ogerin",-1.07
same,surface expression score,[2],0.804
Q21L,cAMP reporter score,[1]; pH 5.5,0.144
same,cAMP reporter score,[1]; pH 6,-0.656
same,cAMP reporter score,"[1]; pH 6, modulator: ogerin",0.457
same,cAMP reporter score,"[1]; pH 6.5, modulator: ogerin",-0.112
same,surface expression score,[2],1.9
Q21M,cAMP reporter score,[1]; pH 5.5,-0.071
same,cAMP reporter score,[1]; pH 6,-1.18
same,cAMP reporter score,"[1]; pH 6, modulator: ogerin",-0.727
same,cAMP reporter score,"[1]; pH 6.5, modulator: ogerin",-0.645
same,surface expression score,[2],-0.132
Q21N,cAMP reporter score,[1]; pH 5.5,-1.02
same,cAMP reporter score,"[1]; pH 6, modulator: ogerin",-1.27
same,cAMP reporter score,"[1]; pH 6.5, modulator: ogerin",-0.74
same,surface expression score,[2],0.859
Q21P,cAMP reporter score,[1]; pH 5.5,-0.89
same,cAMP reporter score,"[1]; pH 6.5, modulator: ogerin",-1.48
same,surface expression score,[2],-0.698
Q21R,cAMP reporter score,[1]; pH 5.5,-0.365
same,cAMP reporter score,[1]; pH 6,-0.946
same,cAMP reporter score,"[1]; pH 6, modulator: ogerin",-0.555
same,cAMP reporter score,"[1]; pH 6.5, modulator: ogerin",-0.81
same,surface expression score,[2],0.298
Q21S,cAMP reporter score,[1]; pH 5.5,-0.358
same,cAMP reporter score,[1]; pH 6,-0.292
same,cAMP reporter score,"[1]; pH 6, modulator: ogerin",-1.89
same,cAMP reporter score,"[1]; pH 6.5, modulator: ogerin",-0.941
same,surface expression score,[2],0.208
Q21T,cAMP reporter score,[1]; pH 5.5,-0.652
same,cAMP reporter score,[1]; pH 6,-0.476
same,cAMP reporter score,"[1]; pH 6, modulator: ogerin",-0.642
same,cAMP reporter score,"[1]; pH 6.5, modulator: ogerin",-0.679
same,surface expression score,[2],0.183
Q21V,cAMP reporter score,[1]; pH 5.5,0.484
same,cAMP reporter score,[1]; pH 6,-0.405
same,cAMP reporter score,"[1]; pH 6, modulator: ogerin",-0.505
same,cAMP reporter score,"[1]; pH 6.5, modulator: ogerin",-0.761
same,surface expression score,[2],0.646
Q21W,cAMP reporter score,[1]; pH 5.5,-0.236
same,cAMP reporter score,[1]; pH 6,-1.03
same,cAMP reporter score,"[1]; pH 6, modulator: ogerin",-0.367
same,cAMP reporter score,"[1]; pH 6.5, modulator: ogerin",-1.01
same,surface expression score,[2],0.316
Q21Y,cAMP reporter score,[1]; pH 5.5,-1.04
same,cAMP reporter score,[1]; pH 6,-1.35
same,cAMP reporter score,"[1]; pH 6, modulator: ogerin",-1.35
same,cAMP reporter score,"[1]; pH 6.5, modulator: ogerin",-0.941
same,surface expression score,[2],-0.125
Q21_T22insG,cAMP reporter score,[1]; pH 5.5,-0.655
same,cAMP reporter score,[1]; pH 6,-0.638
same,cAMP reporter score,"[1]; pH 6, modulator: ogerin",-1.65
same,cAMP reporter score,"[1]; pH 6.5, modulator: ogerin",-1.39
same,surface expression score,[2],-1.97
Q21_T22insGS,cAMP reporter score,[1]; pH 5.5,-0.251
same,cAMP reporter score,[1]; pH 6,-2.07
same,cAMP reporter score,"[1]; pH 6, modulator: ogerin",-1.59
same,cAMP reporter score,"[1]; pH 6.5, modulator: ogerin",-0.627
same,surface expression score,[2],-2.37
T22_L23insG,cAMP reporter score,[1]; pH 5.5,-1.9
same,cAMP reporter score,[1]; pH 6,-0.746
same,cAMP reporter score,"[1]; pH 6, modulator: ogerin",-1.22
same,cAMP reporter score,"[1]; pH 6.5, modulator: ogerin",-0.672
same,surface expression score,[2],-1.52
T22_L23insGS,cAMP reporter score,[1]; pH 5.5,-0.656
same,cAMP reporter score,[1]; pH 6,-0.756
same,cAMP reporter score,"[1]; pH 6.5, modulator: ogerin",-0.904
same,surface expression score,[2],-2.44
T22del,cAMP reporter score,[1]; pH 5.5,-1.39
same,cAMP reporter score,[1]; pH 6,-1.07
same,cAMP reporter score,"[1]; pH 6, modulator: ogerin",-1.43
same,cAMP reporter score,"[1]; pH 6.5, modulator: ogerin",-0.759
same,surface expression score,[2],-0.789
L23_A24insGSG,cAMP reporter score,[1]; pH 5.5,-1.3
same,cAMP reporter score,[1]; pH 6,0.452
same,cAMP reporter score,"[1]; pH 6, modulator: ogerin",-1.02
same,cAMP reporter score,"[1]; pH 6.5, modulator: ogerin",-0.584
same,surface expression score,[2],-1.86
A24_P25del,cAMP reporter score,[1]; pH 5.5,-1.3
same,cAMP reporter score,[1]; pH 6,-1.14
same,cAMP reporter score,"[1]; pH 6, modulator: ogerin",-1.72
same,cAMP reporter score,"[1]; pH 6.5, modulator: ogerin",-0.968
same,surface expression score,[2],-1.9
A24_V26del,cAMP reporter score,[1]; pH 5.5,-0.859
same,cAMP reporter score,[1]; pH 6,-1.28
same,cAMP reporter score,"[1]; pH 6, modulator: ogerin",-1.58
same,cAMP reporter score,"[1]; pH 6.5, modulator: ogerin",-0.541
same,surface expression score,[2],-2.49
